From PubChem BioAssay AID1745853 (National Center for Advancing Translational Sciences (NCATS), 2022) come the findings set out here.

Molecules are shown by their SMILES. Some of the results follow. These are further read-outs of the screen, such as a control signal, another cell line or another target. No call is given for them.

Holding throughout (test): Primary Screen for Target Class Profiling of Small Molecule Inhibitors of Methyltransferases
Assay [1] has as its target Glycine N-methyltransferase (Homo sapiens) (UniProt Q14749). The conditions noted are these: purified enzyme, MTase-Glo SAH luminescence; measured here: GNMT inhibition; at 40 µM; stronger effect = lower value. An outline of the steps:
(§1)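 Each enzyme was assayed with SAM and its substrate. SAH formation detected by MTase-Glo luminescence; single-point 40 uM screen[…].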

In assay [2] the target is Guanidinoacetate N-methyltransferase (Homo sapiens) (UniProt Q14353). The conditions noted are these: purified enzyme, MTase-Glo SAH luminescence; measured here: GAMT inhibition; at 40 µM; stronger effect = lower value. An outline of the steps:
as §1

In assay [3] the target is Histamine N-methyltransferase (Homo sapiens) (UniProt P50135). The note with it: purified enzyme, MTase-Glo SAH luminescence; measured here: HNMT inhibition; at 40 µM; stronger effect = lower value. A digest of the protocol: as §1
Assay [4] deals with Nicotinamide N-methyltransferase (Homo sapiens) (UniProt P40261). The conditions noted are these: purified enzyme, MTase-Glo SAH luminescence; measured here: NNMT inhibition; at 40 µM; stronger effect = lower value. An outline of the steps: as §1
Assay [5] concerns the target Phenylethanolamine N-methyltransferase (Homo sapiens) (UniProt P11086). The conditions noted are these: purified enzyme, MTase-Glo SAH luminescence; measured here: PNMT inhibition; at 40 µM; stronger effect = lower value. An outline of the steps:
as §1
On the % scale 0 is the no-effect control and ±100 the full control effect.

On to `Cc1cccc(-c2n[nH]n3c2nc(=O)c2ccc(C(=O)NCc4ccc5c(c4)OCO5)cc23)c1`, for which the activity change, negative = inhibition in assay [1] was -15.1%; in assay [2], 3.27%; in assay [3], -2.91%; in assay [4] it was -5.14%; in assay [5] it was -7%.
For `COc1ccccc1CNc1nc2c(-c3ccccc3)nnn2c2ccccc12`, the activity change, negative = inhibition in assay [1] is 1.62%; in assay [2], 0.388%; in assay [3], -1.13%; in assay [4], 0.667%; in assay [5] it was -3.51%.
The matching figures for `CN(CC(=O)N(Cc1ccc(C2CCCCC2)cc1)c1ccc(C(=O)O)cc1)S(=O)(=O)c1c(F)c(F)c(F)c(F)c1F`: -74.8%, -8.4%, -3.66%, -52.3% and 4.31%.
In the same order, the values of `CN[C@@H]1[C@H](O[C@H]2[C@H](O[C@@H]3[C@@H](O)[C@H](O)[C@@H](N=C(N)N)[C@H](O)[C@H]3N=C(N)N)O[C@@H](C)[C@]2(O)CO)O[C@@H](CO)[C@H](O)[C@H]1O` are -0.857%, -0.593%, 5.71%, -5.24% and 1.86%.
The matching figures for `COc1cc2c(cc1O)CC(O)(CO)C(CO)C2c1ccc(OC2OC(CO)C(O)C(O)C2O)c(OC)c1` (stereo not given): 0%, -3.32%, -3.85%, -15.3% and 0.293%.
On to `Clc1cccc2c1NC(c1ccc(Br)cc1)C1CC=CC21` (stereo not given), for which the activity change, negative = inhibition in assay [1] is -10%; in assay [2] it was -3%; in assay [3], -7.86%; in assay [4], -7.13%; in assay [5], -10.6%.
The matching figures for `Cc1ccc(S(=O)(=O)NCCn2c(C(F)(F)F)nc3ccccc32)cc1`: -6.45%, 0.355%, 0.459%, 6.59% and 6.09%.
As for `Cc1ccc(C)c(NC(=O)[C@@H]2CCCN2S(=O)(=O)c2cccc3cccnc23)c1`, the activity change, negative = inhibition in assay [1] was -19.3%; in assay [2], 1.13%; in assay [3], 6.94%; in assay [4], -13.9%; in assay [5], -2.12%.
The matching figures for `CN1CC(=O)N(C2CCCCC2)Cc2c(NCCO)ncnc21`: -8.22%, -9.11%, -5.22%, -18.2% and -10.8%.
In the same order, the values of `CC(C)CNC(=O)c1ccc2c(=O)n(CC(C)C)c3nn(CC(=O)NC(C)(C)C)c(=O)n3c2c1` are 3.59%, 0.977%, 6.22%, 2.56% and 4.3%.
The matching figures for `CC(C)Oc1ccc(CNC(=O)c2cc3n(n2)CC(C)(C(=O)NC2CCCCCC2)N(C)C3=O)cc1` (stereo not given): 0.789%, 1.91%, -8.71%, -0.209% and -4.34%.
Consider `COc1cc2c(cc1OC)CN(C(=O)/C=C/c1c(-c3ccccc3)n(C)c3ncccc13)CC2`, for which the activity change, negative = inhibition in assay [1] is -40.4%; in assay [2], -2.85%; in assay [3] it was -9.73%; in assay [4] it was -59.9%; in assay [5], -34.7%.
For `CC1(C)CC[C@]2(C(=O)O[C@@H]3O[C@H](CO)[C@@H](O)[C@H](O)[C@H]3O)CC[C@]3(C)C(=CCC4[C@@]5(C)CC[C@H](O[C@@H]6O[C@H](C(=O)O)[C@@H](O[C@@H]7O[C@H](CO)[C@@H](O)[C@H](O)[C@H]7O)[C@H](O)[C@H]6O[C@@H]6O[C@H](CO)[C@@H](O)[C@H](O)[C@H]6O)C(C)(C)C5CC[C@]43C)C2C1` (stereo not given in full), the activity change, negative = inhibition in assay [1] came out at 1.04%; in assay [2], 14.1%; in assay [3], 9.11%; in assay [4], 1.41%; in assay [5], 9.81%.
The matching figures for `CCCn1c(=O)c2ccc(C(=O)NC(C)C)cc2n2c(=O)n(CC(=O)NC(C)(C)C)nc12`: 1.77%, -0.732%, 2.56%, -5.16% and -2.71%.
In the case of `NC1CCCCN(Cc2ccc(Cl)c(F)c2)C1` (stereo not given), the activity change, negative = inhibition is -0.143% in assay [1]; 0.957% in assay [2]; -22.7% in assay [3]; -4.02% in assay [4]; -16.7% in assay [5].
The matching figures for `CCCN1C(=O)c2cc(C(=O)NCc3ccc(OC)c(OC)c3)nn2CC1(C)C(=O)NC1CCCC1` (stereo not given): -0.482%, 3.59%, -2.08%, -5.47% and -2.58%.
The matching figures for `C[C@]1(CO)[C@H]2Cc3sc(-c4ccccc4)nc3[C@@H](CC(=O)N3CCOCC3)[C@]2(C)CC[C@H]1O`: -3.25%, -1.01%, -0.442%, -4.17% and 1.36%.
In the same order, the values of `C#CCNC(=O)C[C@@H]1C[C@@H](C(C)C)[C@H](CNS(C)(=O)=O)C=C1C` are -4.56%, -6.77%, -2.54%, -5.74% and -5.49%.
In the case of `O=C(NCc1nnc2n1C(C(=O)NCc1cccnc1)CC2)c1cccnc1` (stereo not given), the activity change, negative = inhibition in assay [1] was -3.31%; in assay [2] it was -3.18%; in assay [3], -3.4%; in assay [4] it was -11.1%; in assay [5], -6.81%.
Take `Cc1ccc(C)c(C(=O)N2CC(c3nnc(-c4ccncc4)o3)C3(CCOCC3)C2)c1` (stereo not given): the activity change, negative = inhibition in assay [1] is 0.252%; in assay [2] it was 1.77%; in assay [3], 2.1%; in assay [4], -2.17%; in assay [5] it was -1.01%.
As to `CCOc1ccc(NC(=O)N2CCn3c(C)ccc3C2CC)cc1` (stereo not given), the activity change, negative = inhibition is -0.387% in assay [1]; 0% in assay [2]; -3.66% in assay [3]; 1.64% in assay [4]; -1.18% in assay [5].
In the same order, the values of `CC1(C(=O)NC2CCCCC2)Cn2c(cc3ccccc32)C(=O)N1Cc1ccco1` (stereo not given) are -5.02%, 3.94%, -1.38%, -1.1% and -2.32%.
In the same order, the values of `COc1ccc(NS(=O)(=O)c2ccc3c(c2)n(C)c(=O)n3C)cc1OC` are 11.7%, 0%, 12.3%, 3.08% and 5.19%.
The matching figures for `COCC1CN(C)CC12CCN(S(=O)(=O)c1cccs1)CC2` (stereo not given): -7.93%, -4.68%, -7.41%, -15.7% and -6.2%.
As for `Nc1nc(C2CC(N)C2)cc(N2CCCN(Cc3cccs3)CC2)n1` (stereo not given), the activity change, negative = inhibition in assay [1] was -5.55%; in assay [2], -7.57%; in assay [3] it was -46.8%; in assay [4] it was -10.1%; in assay [5] it was -10.1%.
For `C[C@@H]1O[C@@H](O[C@H]2[C@@H]3C=CO[C@@H](O[C@@H]4O[C@H](CO)[C@@H](O)[C@H](O)[C@H]4O)[C@@H]3[C@@]3(CO)O[C@@H]23)[C@H](OC(=O)/C=C/c2ccc(O)cc2)[C@H](O)[C@H]1O`, the activity change, negative = inhibition in assay [1] is 2.14%; in assay [2], 4.29%; in assay [3] it was -27.1%; in assay [4] it was -8.75%; in assay [5], 5.59%.
In the same order, the values of `CCC1(C(=O)Nc2cc(OC)ccc2OC)CCCCC(=O)N1` (stereo not given) are -0.519%, 1.26%, 2.09%, -3.31% and -1.87%.
Turning to `O=C(CCc1nnc2n(Cc3ccccc3Cl)c(=O)c3ccccc3n12)NCCN1CCOCC1`, the activity change, negative = inhibition in assay [1] was -0.35%; in assay [2] it was 1.44%; in assay [3], 10.4%; in assay [4] it was 10.6%; in assay [5], 3.75%.
